Experimental data published in the RNAGym collection of RNA variant scans (doi:10.1073/pnas.2313332121).
Variants at the background level are over-represented here.

B1: TPR 5TU (parent)
chain: GGAUCUUCUCGAUCUAACAAAAAAGACAAAUCUGCCACAAAGCUUGAGAGCAUCUUCGGAUGCAGAGGCGGCAGCCUUCGGUGGCGCGAUAGCGCCAACGUUCUCAACUAUGACACGCAAAACGCGUGCUCCGUUGAAUGGAGUUUAUCAUG

Variants of: B1
Assay: polymerase ribozyme fitness, log enrichment relative to wild type (log ratio); higher = more active; in vitro selection for triplet polymerase activity
In short: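 Genotype fitness is the logarithm of its enrichment divided by wild-type enrichment, using inverse-variance-weighted averages of replicates. That logarithm is base 2. Enrichment was measured by Illumina sequencing of input and output libraries from one triplicate in vitro selection round, with frozen incubation at −7 °C, on PCR-built, transcribed mutant libraries of each subunit of a heterodimeric triplet polymerase ribozyme, retaining genotypes with ≥10 input reads and ≥1 read per output.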

Row | Variant | polymerase ribozyme fitness (log ratio)
1 | A23G A40C G81A U145C | -3.98
2 | A22G U33G | -3.24
3 | A22G A39C G81U G92A C103A | ≤ -4.2
4 | A23G C54U G68U C95U | ≤ -4.2
5 | A22U G42C G80A A91G C95G A98U | ≤ -4.2
6 | A22U G88C A147C | -4.19
7 | A22U U90A A98G | ≤ -4.2
8 | A23U G86U A89G C105G C129U | ≤ -4.2
9 | A23C U31C C99U C123U U134C | ≤ -4.2
10 | A22U C32G U134C | ≤ -4.2
11 | A23U A73G C96G U151G | ≤ -4.2
12 | A23U A40G C87A G141U | ≤ -4.2
13 | A22U A41U A60U A106U | -4.16
14 | A22U A37G A41G G48C G94U | ≤ -4.2
15 | A22U G86C | -3.34
16 | A23U A47C C76U C87A A107C G136A U145G | ≤ -4.2
17 | A22C C27U G50C G80U U144G | ≤ -4.2
18 | A23U A64U G88C C93U C125U | ≤ -4.2
19 | A23C A91U C99G G152A | ≤ -4.2
20 | A23U A41C U55G C79U G84C G143A | ≤ -4.2
21 | A22U A30G U56A G86A C123U G136A | ≤ -4.2
22 | A23U C51G C75A C85G | ≤ -4.2
23 | A22U A23U C54G C87A | ≤ -4.2
24 | A22G A29U U77C C85G C95U C103U C114G C125U | ≤ -4.2

Row | Variant | polymerase ribozyme fitness (log ratio)
25 | A24C A26U G70C G140U | ≤ -4.2
26 | A23U C43U U53A U55A A106G G124U C129G | ≤ -4.2
27 | A24C A29C U55G G94C | ≤ -4.2
28 | A22G C27U A30G A121G U139A | ≤ -4.2
29 | A23C C54G C57U C93G U101C C105A G124U G141A | ≤ -4.2
30 | A22G U33C A39C G46C C79A G81A C87A C105U C114A A137G | ≤ -4.2
31 | A22U G92A C95A C105U | -3.63
32 | A23C U31C C63A G70A C95U G136A | ≤ -4.2
33 | A23U A28C C87A G152U | ≤ -4.2
34 | A23U C87G C95U U109A A115C C118G A138C | ≤ -4.2
35 | A22G A66C C75A C76U U90G C93A U101G | ≤ -4.2
36 | A22U A29U U56A G83A G152U | ≤ -4.2
37 | A23C A28U A40G C93G | ≤ -4.2
38 | A21U U31C A73G G94U A113U | -3.49
39 | A22U C87G U90G A97U | ≤ -4.2
40 | A22C A49C G83C U90G C114U | ≤ -4.2
41 | A22U A28U U55A C93U | ≤ -4.2
42 | A22G C76U C85A C87U G117A | ≤ -4.2
43 | A23U U53A C96A C114G G143A U146G | ≤ -4.2
44 | A23G A29C C87A U144A | ≤ -4.2
45 | A22U A66C C85G | ≤ -4.2
46 | A22U C85A U90G A137G G143C | ≤ -4.2
47 | A23U A29C A119U | ≤ -4.2
48 | A22C G46A C51A | ≤ -4.2

Row | Variant | polymerase ribozyme fitness (log ratio)
49 | A22C A37C | -0.165
50 | A23C C43A C95G | ≤ -4.2
51 | A22C A40U C57U G58A G65A C75A G133A A138U A142C | ≤ -4.2
52 | A22G A23C C51U G81A C93U C118G U134C A150C | ≤ -4.2
53 | A22U C27A C32A A41U C57A G84C A142G | ≤ -4.2
54 | A23C U53A C54U G67C G81U C85G G128A | ≤ -4.2
55 | A22G G88A C96U | ≤ -4.2
56 | A23G G92U C118G A150G | ≤ -4.2
57 | A22C G46C G83C | -3.01
58 | A22U G48A C85G A97U | ≤ -4.2
59 | A23C C87U | -3.89
60 | A22C A29G G84A G86U C99A | ≤ -4.2
61 | A21U G86A | -0.555
62 | A23C U55A G58C | ≤ -4.2
63 | A22C A41C A49C U53A G67U G117A C131A | ≤ -4.2
64 | A22U A66C C87U | ≤ -4.2
65 | A22C U53G G94A A119G | -1.81
66 | A23U C54A G83U U102G | ≤ -4.2
67 | A23U A37U A97U U111C | ≤ -4.2
68 | A23U C76U C87A A89C G94A U101A | ≤ -4.2
69 | A23G U56G C93G C103G U135G G143C | ≤ -4.2
70 | A23C A28C G46A U55A C96U | ≤ -4.2
71 | A23C A41G C57G | ≤ -4.2
72 | A22C A37C G59C C76A U148G | ≤ -4.2

Row | Variant | polymerase ribozyme fitness (log ratio)
73 | A23C C32G C72U C96A A122G | ≤ -4.2
74 | A22U C99U | -0.0944
75 | A22U C99A | 0.261
76 | A22G A37C U44A G84C C85U C96U A98G G136A C149G A150U | ≤ -4.2
77 | A23G G80A G83A C118U | ≤ -4.2
78 | A23C U56A G84U C85A G143C | ≤ -4.2
79 | A23C C32A A41C A49G G50C G84A G117U U134A | ≤ -4.2
80 | A23U A91G | ≤ -4.2
81 | A22G C93U | -0.637
82 | A23G C87U | -3.14
83 | A22U G83C | -1.73
84 | A22U A30C G80C A120U | ≤ -4.2
85 | A23U C35A G65A G83C U90A C103U A150C | ≤ -4.2
86 | A22G A29U U31A C85U U145A | ≤ -4.2
87 | A23C A49G C63U G86C G126C A147U | ≤ -4.2
88 | A23G C54A U55G G58A G59C | -4.08
89 | A22U U55A G88A C103G A106C | ≤ -4.2
90 | A23U G84A | -3.32
91 | A22G A24U C63G | 2.39
92 | A22G G34A G50C G68A U101G G133U | ≤ -4.2
93 | A23U C54U A60G C96U G124A C125U G143U | ≤ -4.2
94 | A22C A24U C63A G71A C108G G117U | ≤ -4.2
95 | A22G G83A C105A | -3.83
96 | A22G U31G C54U C96G A115G C123G A137C | ≤ -4.2

Row | Variant | polymerase ribozyme fitness (log ratio)
97 | A22U A91U | ≤ -4.2
98 | A22G G68A | ≤ -4.2
99 | A23C A26U U33G C76A U101G U145G | ≤ -4.2
100 | A22G A66C G84A U148G | ≤ -4.2
101 | A23C A52C C54U G62C C85G | ≤ -4.2
102 | A23C C35A U45G C57U C93G U151C | ≤ -4.2
103 | A22U G81A C85U G88A A91U | ≤ -4.2
104 | A22C A47U C54U G86U C103A | ≤ -4.2
105 | A22G A29C U55G C75G G88C G126A A150C | ≤ -4.2
106 | A22C A30U C76A G124A | ≤ -4.2
107 | A23G A49U A73U A91U G94U A98U A119G C125A | ≤ -4.2
108 | A22C C35U A49U A66U C103G | ≤ -4.2
109 | A23C C79G A91U C95U C116U A147C | ≤ -4.2
110 | A23G C54U C93U G128C | ≤ -4.2
111 | A23G A28G C38A G46C C85U | ≤ -4.2
112 | A22G C132G | -3.69
113 | A22G C132U | -0.512
114 | A22G U31C U44A C95G A150G | ≤ -4.2
115 | A22U G42U G86A A113C C116A | ≤ -4.2
116 | A23G C93U U101A G140U | -3.86
117 | A23U A26U A41U G50A G65C A91C C103G G128U | ≤ -4.2
118 | A23C A37C A73U A89G A91C C108G | ≤ -4.2
119 | A23G C36A G92C G94A U102G A119C | ≤ -4.2
120 | A22U G25U G70C U139A | ≤ -4.2

Row | Variant | polymerase ribozyme fitness (log ratio)
121 | A22C A23G C54U | ≤ -4.2
122 | A23U G48A A97U | ≤ -4.2
123 | A22G U45A A60G C79G G92A A115C | ≤ -4.2
124 | A22G U130A | -1.59
125 | A22G A39C U55A U77G G80C C85U C125G G141A | ≤ -4.2
126 | A22G G50U C51U C93G | ≤ -4.2
127 | A22G A49G U55G G67A C93G G100A G128U U135A A137G | ≤ -4.2
128 | A22U A26C U56A A60C C72G C87A C116G A147U | ≤ -4.2
129 | A23C A24U G50A G83A A98U G141C | ≤ -4.2
130 | A22C G34C U55G A91C G92U | ≤ -4.2
131 | A22C U53A G83U C108G A137G U139A | ≤ -4.2
132 | A23C G84C C96A G136A U144A | ≤ -4.2
133 | A23G C93U | -3.77
134 | A22C A28C U53G G74A G83C C85U | ≤ -4.2
135 | A22C G48U U53A C87A | ≤ -4.2
136 | A23C C43A A52U A119C U135G U139A G140A A142G | ≤ -4.2
137 | A23C A73U G83A C93U U145C | ≤ -4.2
138 | A23U C32U A47U G67C G83U U148C | ≤ -4.2
139 | A22C A28U C63G C87U G88C A142C | ≤ -4.2
140 | A22G C27A G80U A91G C131G U139G | ≤ -4.2
141 | A23U A66C G80U G133C G140A | ≤ -4.2
142 | A22U A29U A41G U90G C93G C95U G140U | ≤ -4.2
143 | A23U A37C A52C G84U A121G G126C | ≤ -4.2
144 | A23G G50C G84U C85G A150C | -3.98

Row | Variant | polymerase ribozyme fitness (log ratio)
145 | A22G C36G G84A | ≤ -4.2
146 | A23U U56A C57U G83U A89U | ≤ -4.2
147 | A23G G86A A89C A106U A115C G136A U148A | ≤ -4.2
148 | A22C U61G G65U C95U A121G G140A | ≤ -4.2
149 | A23G C57U C85U A98G U148C | ≤ -4.2
150 | A23G C57U A91G C103G C108A | ≤ -4.2
151 | A23C C79G C87U | ≤ -4.2
152 | A22U C57U A60G C87G U90A G128A | ≤ -4.2
153 | A23G U44A G83C U144C | ≤ -4.2
154 | A23U C76A C99A U134G | ≤ -4.2
155 | A22U G48C C51U C116G G124A A150G | ≤ -4.2
156 | A23U C87G A91U A98U | ≤ -4.2
157 | A23U C54U G92C | ≤ -4.2
158 | A23U G58C A64C C69G C85U A110U U134G | ≤ -4.2
159 | A23G G84U U144G | ≤ -4.2
160 | A22C A91G C95G G141A C149A | ≤ -4.2
161 | A21U U33A A40U G58A C85G A98C A106U G126C | ≤ -4.2
162 | A23G C35A A142G | -3.78
163 | A21U U31G G34U G48U C76A G86A G88A G143C | ≤ -4.2
164 | A23C C76U C93U | ≤ -4.2
165 | A23U A29G A41C U53A A64U C87G C118G A121U U145A | ≤ -4.2
166 | A23U C105A A122C G124U | ≤ -4.2
167 | A22C U53A U56A A73G | -1.97
